Nucleolar normality score data for 32 compounds are collected here from the supplement of paper PMC10723795.

Counter-ions that a name gives are not always drawn. The list shows a part of the results.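 Rule for the calls: active = more than 2 SD below the DMSO mean: under 0.85 at 10 µM or 0.885 at 1 µM; inactive = the rest.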 Many values rest on one well or one pass, so single values are uncertain.

The test system of the assay is RPE1. Description: nucleolar normality score relative to DMSO (fraction of DMSO control); RPE1 is a non-cancer human cell line; higher = more normal nucleoli (less nucleolar stress). The following applies: 24 h.
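Note: fixed cells immunolabelled for nucleolin and UBF, 40 image fields per well in 384-well plates, per-cell score = nucleolin nucleolar/nucleoplasm intensity ratio divided by the matching UBF ratio.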

With `O=C(Nc1ccc2c(O)cc(S(=O)(=O)O)cc2c1)Nc1ccc2c(O)cc(S(=O)(=O)O)cc2c1`, the nucleolar normality score runs as follows: (1 µM) active: 0.839; (10 µM) inactive: 0.958.

On to `COc1cc2c(cc1OC)CN(CCc1ccc(NC(=O)c3cccc4c(=O)c5cccc(OC)c5[nH]c34)cc1)CC2`, for which the nucleolar normality score reads like this: (1 µM) inactive: 0.967; (10 µM) inactive: 0.96.

Take `CC[C@]1(O)C[C@@H]2CN(CCc3c([nH]c4ccccc34)[C@@](C(=O)OC)(c3cc4c(cc3OC)N(C)[C@H]3[C@@](O)(C(=O)OC)[C@H](OC(C)=O)[C@]5(CC)C=CCN6CC[C@]43[C@@H]65)C2)C1` [Vinblastine sulfate]: the nucleolar normality score was inactive: 0.98 (1 µM) and inactive: 1.1 (10 µM).

With `O=C(O)c1ccc(N2C(=O)C(=Cc3ccc(-c4ccc([N+](=O)[O-])cc4)o3)C=C2c2ccccc2)cc1`, the nucleolar normality score is inactive: 0.969 (1 µM) and inactive: 1.04 (10 µM).

`Cc1cc(CS(=O)(=O)c2ccccc2)cc(OCc2ccc(CN3CCC[C@@H]3CO)cc2)c1`: the nucleolar normality score runs as follows: (1 µM) inactive: 0.947; (10 µM) inactive: 1.01.

Regarding `Cc1cc(N2CCOCC2)cc2[nH]c(-c3c(NCC(O)c4cccc(Cl)c4)cc[nH]c3=O)nc12` (centres undefined), the nucleolar normality score is, setting by setting: (1 µM) active: 0.808; (10 µM) inactive: 0.964.

Regarding `Clc1ccc(COC(Cn2ccnc2)c2ccc(Cl)cc2Cl)cc1` (centres undefined) [Econazole], the nucleolar normality score is, setting by setting: (1 µM) inactive: 1.01; (10 µM) inactive: 1.06.

Turning to `NC(=O)NO` [Hydroxyurea], the nucleolar normality score (1 µM) was inactive: 0.974 and the nucleolar normality score (10 µM) was inactive: 1.04.

As for `O=S(=O)(O)CCSSCCS(=O)(=O)O` [Dimesna], the nucleolar normality score reads like this: (1 µM) inactive: 1; (10 µM) inactive: 1.06.

As to `C[C@@H]1CC[C@@]2(OC1)O[C@H]1C[C@H]3[C@@H]4CC=C5C[C@@H](O[C@@H]6O[C@H](CO)[C@@H](O)[C@H](O[C@@H]7O[C@H](CO)[C@@H](O)[C@H](O)[C@H]7O)[C@H]6O[C@@H]6O[C@@H](C)[C@H](O)[C@@H](O)[C@H]6O)CC[C@]5(C)[C@H]4CC[C@]3(C)[C@H]1[C@@H]2C` [Gracillin], the nucleolar normality score was active: 0.385 (1 µM) and active: 0.361 (10 µM).

As to `CO[C@H]1C(=O)[C@]2(C)[C@@H](OC)C[C@H]3OC[C@@]3(OC(C)=O)[C@H]2[C@H](OC(=O)c2ccccc2)[C@]2(O)C[C@H](OC(=O)[C@H](O)[C@@H](NC(=O)OC(C)(C)C)c3ccccc3)C(C)=C1C2(C)C` [Cabazitaxel], the nucleolar normality score runs as follows: (1 µM) active: 0.848; (10 µM) active: 0.764.

Regarding `CC(C)(C)c1ccc(S(=O)(=O)NCc2ccc(C(=O)Nc3cccnc3)cc2)cc1`, the nucleolar normality score is inactive: 0.923 (1 µM) and inactive: 1.01 (10 µM).

Regarding `Nc1nc(=O)c2c([nH]1)NCC(CNc1ccc(C(=O)N[C@@H](CCC(=O)O)C(=O)O)cc1)N2C=O` (some centres undefined) [Leucovorin Calcium Pentahydrate], the nucleolar normality score was inactive: 1.05 (1 µM) and inactive: 1.13 (10 µM).

In the case of `Oc1c(Cl)cc(Cl)cc1Sc1cc(Cl)cc(Cl)c1O` [Bithionol], the nucleolar normality score is inactive: 1.03 (1 µM) and inactive: 1.1 (10 µM).

On to `Cc1cc(C)cc(NC(=O)Cc2ccc(OC(C)(C)C(=O)O)cc2)c1` [Efaproxiral Sodium], for which the nucleolar normality score (1 µM) is inactive: 0.984 and the nucleolar normality score (10 µM) is inactive: 0.874.

`CCOc1ccc(Cc2cc([C@@H]3O[C@H](CO)[C@@H](O)[C@H](O)[C@H]3O)ccc2Cl)cc1` [Dapagliflozin]: the nucleolar normality score (1 µM) was inactive: 0.996 and the nucleolar normality score (10 µM) was inactive: 1.03.

For `CN(C)CCN1C(=O)c2cccc3cc(N)cc(c23)C1=O` [Amonafide], the nucleolar normality score is inactive: 0.964 (1 µM) and inactive: 0.939 (10 µM).

For `CC(C)NCCCn1c(Sc2cc3c(cc2I)OCO3)nc2c(N)ncnc21`, the nucleolar normality score runs as follows: (1 µM) inactive: 0.947; (10 µM) active: 0.673.

As to `Nc1ccn([C@@H]2O[C@H](CO)[C@@H](O)[C@H]2O)c(=O)n1` [Cytidine], the nucleolar normality score by setting is: (1 µM) inactive: 1.02; (10 µM) inactive: 1.03.

With `C=CC(=O)N1CC[C@@H](Oc2nc(Nc3ccc(N4CCC(N5CCN(C)CC5)CC4)cc3)c(C(N)=O)nc2CC)C1` [Naquotinib(ASP8273)], the nucleolar normality score by setting is: (1 µM) inactive: 1.03; (10 µM) inactive: 1.04.

With `COc1ccc(COc2cc3oc(=O)c4cc(C(C)O)ccc4c3cc2OC)cc1` (centres undefined) [Palomid 529 (P529)], the nucleolar normality score is inactive: 1.02 (1 µM) and inactive: 1.07 (10 µM).

Turning to `c1ccc(Cn2c(-c3ccc(OCC(C4CCNCC4)n4c(-c5ccccc5)nc5ccccc54)cc3)nc3ccccc32)cc1` (centres undefined) [Deltarasin], the nucleolar normality score by setting is: (1 µM) active: 0.869; (10 µM) inactive: 0.87.

Take `CC[C@@H]1C(=O)N(C)c2cnc(Nc3ccc(C(=O)NC4CCN(C)CC4)cc3OC)nc2N1C1CCCC1`: the nucleolar normality score was inactive: 1.04 (1 µM) and inactive: 1.06 (10 µM).

For `CN(CC(=O)N(Cc1ccc(C2CCCCC2)cc1)c1ccc(C(=O)NO)cc1)S(=O)(=O)c1c(F)c(F)c(F)c(F)c1F`, the nucleolar normality score is inactive: 0.995 (1 µM) and inactive: 1.03 (10 µM).

As for `CO[C@H]1C[C@@H]2CC[C@@H](C)[C@@](O)(O2)C(=O)C(=O)N2CCCC[C@H]2C(=O)O[C@H]([C@H](C)C[C@@H]2CC[C@@H](OP(C)(C)=O)[C@H](OC)C2)CC(=O)[C@H](C)/C=C(\C)[C@@H](O)[C@@H](OC)C(=O)[C@H](C)C[C@H](C)/C=C/C=C/C=C/1C` [Ridaforolimus (Deforolimus, MK-8669)], the nucleolar normality score reads like this: (1 µM) active: 0.883; (10 µM) inactive: 0.88.

On to `CCCCC[C@H](O)CC(=O)CCc1ccc(O)c(OC)c1` [6-Gingerol], for which the nucleolar normality score is inactive: 1.02 (1 µM) and inactive: 0.919 (10 µM).

Regarding `Fc1ccc(CNc2ncnc3ccc(F)cc23)cc1` [Spautin-1], the nucleolar normality score reads like this: (1 µM) inactive: 1.03; (10 µM) inactive: 1.02.

`CCS(=O)(=O)N1CCC([C@@H](C)n2c(C)c(C(=O)NCc3c(OC)cc(C)[nH]c3=O)c3ccccc32)CC1`: the nucleolar normality score is inactive: 0.902 (1 µM) and inactive: 1.01 (10 µM).

On to `O=S(=O)(N=Cc1c(O)ccc2ccccc12)c1cccs1`, for which the nucleolar normality score (1 µM) is inactive: 1.02 and the nucleolar normality score (10 µM) is inactive: 1.09.

For the compound `CC12CCC(O)CC1=CCC1C2CCC2(C)C(C(O)CC(O)(C(F)(F)F)C(F)(F)F)CCC12` (centres undefined), the nucleolar normality score was inactive: 1.04 (1 µM) and inactive: 1.1 (10 µM).

Consider `CCCC(CCC)C(=O)O` [Valproic acid sodium salt (Sodium valproate)], for which the nucleolar normality score by setting is: (1 µM) inactive: 0.981; (10 µM) inactive: 1.05.

Consider `CC[C@H](Nc1ncnc2[nH]cnc12)c1nc2cccc(F)c2c(=O)n1-c1ccccc1` [Idelalisib (CAL-101, GS-1101)], for which the nucleolar normality score is, setting by setting: (1 µM) inactive: 1.01; (10 µM) inactive: 1.04.
